# According to the supplement of paper PMC11417369:
# The list shows a part of the results.
# System: PF3D7_0420300 AP2 domain 1 (GST-tagged)
# Test: gcPBM binding intensity (ln(normalized median fluorescence intensity)); higher = stronger DNA binding
# Summary of the method: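 In this array assay, P. falciparum DNA-binding domains with a GST tag, expressed in E. coli, were applied for 1 h to primer-extended double-stranded 36-bp intergenic genomic probes and negative controls on an Agilent 4 × 180k array. Bound protein was visualised with Alexa488 anti-GST antibody at 488 nm. Binding intensity is the highest Masliner-normalised natural-log median intensity across replicate spots of either probe orientation.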
row,Sequence,gcPBM binding intensity (ln)
1,AAGTAATTTATGCATACACACATATATAAATATGTA [CACACA_site7813],9.39
2,ATATATATAAAACACACACACACATGTTTTAAAACT [CACACA_site78],10.2
3,AAAAACTATTGTAGGACACACAAAATTCCAATTTTA [CACACA_site1701],9.41
4,AAAATGTTTTTATCCAGTACATAAATATATATATAT [XGTACX_site7398],9.15
5,TATGAACACCCAAATACACACACTCAAAAAAAAAAA [CACACA_site5466],9.71
6,TCAGATCCATAGAAGGTGCAAATAACAAAAATACAA [GTGCAC_site9610],9.43
7,TAATTTTTCTTATATAGTACACAAAAAGAAAATTAC [XGTACX_site6393],8.94
8,TTCCCTATATAGAGCATGCACTATATTCAAATGATG,9.13
9,TTAGATATAAAAGCATGTACTTGTATAAAATATATA [XGTACX_site8272],9.16
10,TTATCAAATGAGTGTTGTACGTCTTTTGAAATACCA [XGTACX_site8804],8.98
11,GAAAAATTGAATTTGGGTACATATAAATATTATATT [XGTACX_site2363],9.16
12,ATAAATATTAGCAGTTGTACAATAAATATATGTAAT [XGTACX_site2534],9.4
13,TAAATACTTATATGTACACACATATAGATATATATT [CACACA_site2553],9.33
14,ATATAAATAAATGTATGTACATATATTTATATGCAT [XGTACX_site4185],9.19
15,CACAGACACGGACACACACACACACCGATATATATA [CACACA_site4353],10.3
16,ATTTTTTAAAATATTTGTACATATATAATGCATATA [XGTACX_site7026],9.03
17,ATATATATATATATATGTACATATATTTGTAATGTC [XGTACX_site8074],9.42
18,TTTATTATGTAAGCATGTACATGATGTATATATTTA [XGTACX_site5021],9.12
19,TATTTACAAATAAAAAGTACATAAACTAATATCTTT [XGTACX_site2181],9.19

row,Sequence,gcPBM binding intensity (ln)
1,ATCTGTACAGTTTTTGCACACATATAAATAAAAAAA [CACACA_site9198],9.43
2,TTGTTTGTAAACAGATGTACATATAAAAATATATAT [XGTACX_site3370],9.03
3,TATATTAGAAAGGATACACACATATATAAATATCTA [CACACA_site6411],9.65
4,TCAAAGTAAAACAGGACATGCACAGAACATCCTGCC [TGCATGCA_site2],9.38
5,AAAAAAAAAACATACACACACATATAGATTTATATG [CACACA_site6847],9.99
6,TACACAAAGTTACATACACACTAATATTTACACCAT [CACACA_site6602],9.59
7,TAAAGAAAAATATAAAGTACAAAAATAAAAAAAATA [XGTACX_site8226],9.4
8,GTATTTATGTGTTTGGTGCAAGGGAGAATTTTTTTT,9.36
9,TTTTTTTTGTATTTTTCACACACACCGAAGTAAACA [CACACA_site8575],9.85
10,TAAAAGGATGCATATACACACATATAGATTTATATA [CACACA_site7336],9.47
11,ATATAATCTGAGTGCACACAAATAAATAAACATACA [CACACA_site422],9.76
12,TTTTTCCTTATTAATACACACATTCACCTTTTAAAT [CACACA_site479],9.53
13,AGTTGCATACATTGAAGTACAGAACATTTATATATA [XGTACX_site240],9.22
14,TTAAATTCGTCATTTTAAAATAATACAAAAGTTCAA [CACACA_negctrl_site19],8.83
15,ATTTATAAAATATAATTACATTTTTAAATAATAAAA [GTGCAC_negctrl_site43],8.8
16,TTACGATTTAAAATGGGTACATATATATGAAAAAAA [XGTACX_site545],9.14
17,CTTATGTGCATACCTACACACTTACCTATATTTATA [CACACA_site7411],9.6
18,AACAATAAATTATTATGTACACATATATTATATATA [XGTACX_site4629],9.21
19,ATATTTTAAAATAATACACACAAAATGATTCTTAAT [CACACA_site2930],9.55

row,Sequence,gcPBM binding intensity (ln)
1,ATAAGTATTACTAGTACACACAAGTTGTTAATCCTT [CACACA_site3324],9.61
2,TATATTATATAATTTTAACACACAAGAATATAAACT [CACACA_site8378],9.73
3,TATTTAAAATAATAACAAAATTAACATAAATATATA [GTGCAC_negctrl_site472],9.16
4,AATATGTTTTACGTCTCACACATATAGGTTTATATT [CACACA_site4713],9.5
5,CATAAATACAAATATACACACATATTTATATTTATA [CACACA_site7277],9.54
6,ATATATAGATGTGAATTATTTATATTATCTATTCTT [CACACA_negctrl_site518],9.25
7,ATTATACTTTCCATTCGTACATATATAAATAAATAA [XGTACX_site6245],9.28
8,AAAAAGAACACAAAAAGTACAAAAATTATAATGATA [XGTACX_site2676],9.61
9,AAACTTCAAAAAGAGCACTTGAATTTTTTTTTTTTT [TGCATGCA_negctrl_site133],8.9
10,ATATTATATCTAATCGTGCACAACTGTACATTTGTC,9.29
11,CCCATGTAATATTAAACACACACTCATATAACACAA [CACACA_site7906],9.71
12,TTGTATCATATATTATGTACATATTTATTTATTATC [XGTACX_site7723],9.24
13,CAAAATATTTAAAAAAGTACTTAAAATAAATTCAAA [XGTACX_site6866],9.06
14,ATATTTAAATATATTTATATATATAAAAAAAAATAT [GTGCAC_negctrl_site312],9.11
15,CACACAACTATCAAGGTGCTAAAATGAAATAATATA [GTGCAC_site9871],9.08
16,AAAAAAATAAAAAATATATAAATAATTAATACATGT [GTGCAC_negctrl_site633],9.36
17,AATATAAATAAAAACACACACACACGGATATTTATA [CACACA_site7134],10.3
18,AAGGTGGGAAAAAATAGTACACAACAAAAATGTATG [XGTACX_site8741],9.38
19,ATATATCTATATGTGTGTACATATAAGTATTTATAT [XGTACX_site5333],9.41
